The test system of the assay is nude mice, A549 intrarenal xenograft, tumor weight change. Briefly: NCI In Vivo Anticancer Drug Screen. Data for tumor model A549 Human Adenocarcinoma of Lung with characteristics of Type II Alveolar Epithelial cells (intrarenal inoculation) in NU/NU BALB/C (nude) mice. The conditions noted are these: endpoint: mean tumor weight change, higher = larger tumour. How it is done: The antitumor activity of compounds was measured in mice bearing transplantable tumors. Survival or tumor size were measured and the results are expressed as the measurement made in the treated group (T) divided by the measurement made in the vehicle treated control group (C). The tumor model used in this assay is A549 Human Adenocarcinoma of Lung with characteristics of Type II Alveolar Epithelial cells (intrarenal inoculation) in NU/NU BALB/C (nude) mice

Where [1] appears, read: dose: 50.0 mg/kg/injection, schedule: Q04DX003 (ip), vehicle: saline with Tween-80.
Setting [2] is: dose: 100.0 mg/kg/injection, schedule: Q04DX003 (ip), vehicle: saline with Tween-80.
Where [3] appears, read: dose: 50.0 mg/kg/injection, schedule: Q04DX003 (ip), vehicle: Klucel (hydroxypropylcellulose) (HPC).
Where [4] appears, read: dose: 200.0 mg/kg/injection, schedule: Q04DX003 (ip), vehicle: Klucel (hydroxypropylcellulose) (HPC).

Results filed as inconclusive are left out. A number of entries come with more than one value. This list holds those alone. The source may hold further records. The records of an entry repeat one measurement across runs, samples, wells, individuals or studies. Starred links: 1 amine or outer side, 2 acyl side, 3 side chain; linkers in the order of their positions; H or OH if unused. Positions of bridges follow the written chain, without caps; N, C: chain ends. Non-standard residues stand in square brackets, D forms with d. Residues, ends and D or L forms follow the SMILES beside them. Chains are numbered I, II in the order given. Actinocin(9to1) = Cc1c2oc3c(C)ccc(C(=O)[*:1])c3nc-2c(C(=O)[*:2])c(N)c1=O; aThr = C[C@H](O)[C@H](N)C(=O)O; NMeV = CN[C@H](C(=O)O)C(C)C; Sar = CNCC(=O)O

`O=NNc1cccnc1`: the T/C by setting is: (dose: 12.5 mg/kg/injection, schedule: Q04DX003 (ip), vehicle: water) 81 % of control and 109 % of control; (dose: 25.0 mg/kg/injection, schedule: Q04DX003 (ip), vehicle: water) 70 % of control and 112 % of control. With `CC(C)N1C(=O)N(Cl)C2C1N(Cl)C(=O)N2Cl` (stereo not drawn), the T/C by setting is: under setting [1], 66 % of control and 98 % of control; under setting [2], 68 % of control and 178 % of control. On to `O=C(/C=C/c1cccnc1)/C=C/c1cccnc1`, for which, under setting [3], the T/C was 54 % of control and 110 % of control. Take `O=C(O)CCCc1ccc(N(CCCl)CCCl)cc1`: the T/C runs as follows: (dose: 12.0 mg/kg/injection, schedule: Q04DX003 (ip), vehicle: Klucel (hydroxypropylcellulose) (HPC)) 20 % of control and 46 % of control; (dose: 18.0 mg/kg/injection, schedule: Q04DX003 (ip), vehicle: Klucel (hydroxypropylcellulose) (HPC)) 6 % of control and 40 % of control; (dose: 27.0 mg/kg/injection, schedule: Q04DX003 (ip), vehicle: Klucel (hydroxypropylcellulose) (HPC)) -43 % of control and 28 % of control. For `COC(=O)NC1C(C)OC(OC2C/C=C(/C)C3C=CC4C(OC5CC(OC6CC(OC7CC(O)C(O)C(C)O7)C(OC7CC(O)C(OC)C(C)O7)C(C)O6)C(O)C(C)O5)C(C)CC(C)C4C3(C)/C(O)=C3\C(=O)OC4(CC(C)C(CO)=CC4/C=C\2C)C3=O)CC1(C)[N+](=O)[O-]` (stereo not drawn), where the note is “dose: 75.0 mg/kg/injection, schedule: Q04DX003 (ip), vehicle: water”, the T/C is 57 % of control and 99 % of control. As to `COc1cc(C)c(C2NC(=O)c3ccccc3N2)cc1C` (stereo not drawn), under “dose: 600.0 mg/kg/injection, schedule: Q04DX003 (ip), vehicle: Klucel (hydroxypropylcellulose) (HPC)”, the T/C was 6 % of control and 104 % of control.

For the molecule `Cc1c(O)/c(=C\O)c2nc3c(=O)ccc(C(=O)NCCN(C)C)c3[nH]c2c1=O`, the T/C is 55 % of control and 122 % of control (dose: 72.0 mg/kg/injection, schedule: Q04DX003 (ip), vehicle: water); 13 % of control, 59 % of control, 76 % of control (dose: 200.0 mg/kg/injection, schedule: Q04DX003 (ip), vehicle: water). As to `O=C1CN(CO)C(=O)N1CO`, the T/C (dose: 100.0 mg/kg/injection, schedule: Q04DX003 (ip), vehicle: saline) was 82 % of control and 154 % of control; the T/C (dose: 200.0 mg/kg/injection, schedule: Q04DX003 (ip), vehicle: saline) was 94 % of control and 162 % of control. Turning to `COc1cc2c(c(OC)c1O)-c1ccc(OC)c(=O)cc1[C@@H](NC(=O)C(F)(F)F)CC2`, the T/C (dose: 20.0 mg/kg/injection, schedule: Q04DX003 (ip), vehicle: Klucel (hydroxypropylcellulose) (HPC)) was -78 % of control and 21 % of control. As to `COc1cc2c[n+](C)c3c(c2cc1OC)Cc1cc2c(cc1-3)OCO2`, the T/C runs as follows: (dose: 37.5 mg/kg/injection, schedule: Q04DX003 (ip), vehicle: saline with Tween-80) 27 % of control and 95 % of control; (dose: 75.0 mg/kg/injection, schedule: Q04DX003 (ip), vehicle: saline with Tween-80) 37 % of control and 75 % of control; (dose: 150.0 mg/kg/injection, schedule: Q04DX003 (ip), vehicle: saline with Tween-80) -40 % of control and 4 % of control. As to `CO[C@H](/C(C)=C/C=C/C(C)=C/c1coc(C)n1)[C@H](C)[C@H]1C[C@@H](O)[C@@]2(C)O[C@H]2/C=C/[C@@H](C)[C@@H]2C[C@@H](CC(=O)O2)C[C@H]2O[C@@H]2C(=O)O1`, the T/C by setting is: (dose: 0.09 mg/kg/injection, schedule: Q01DX009 (ip), vehicle: other) 1 % of control and 42 % of control; (dose: 0.13 mg/kg/injection, schedule: Q01DX009 (ip), vehicle: other) -56 % of control and 24 % of control; (dose: 0.2 mg/kg/injection, schedule: Q01DX009 (ip), vehicle: other) -56 % of control and 5 % of control.

Consider `O=C1C(=O)c2cccnc2-c2ncccc21`, for which, under “dose: 5.0 mg/kg/injection, schedule: Q04DX003 (ip), vehicle: Klucel (hydroxypropylcellulose) (HPC)”, the T/C is 26 % of control and 70 % of control. Turning to `CC1Oc2cc3c(-c4c(O)cc(O)c5c(O)c6c(cc45)OC(C)C(C)C6=O)c(O)cc(O)c3c(O)c2C(=O)C1C` (stereo not drawn), the T/C (dose: 1.5 mg/kg/injection, schedule: Q04DX003 (ip), vehicle: suspension in saline) was 71 % of control and 194 % of control. `O=C(Nc1cccnc1)c1ccc([N+](=O)[O-])s1`: the T/C was 7 % of control and 92 % of control under setting [1]; -12 % of control and 26 % of control under setting [2]; 28 % of control and 75 % of control (dose: 400.0 mg/kg/injection, schedule: Q04DX003 (ip), vehicle: saline with Tween-80). In the case of `CN(Cc1cnc2nc(N)nc(N)c2n1)c1ccc(C(=O)N[C@@H](CCC(=O)O)C(=O)O)cc1`, the T/C (dose: 12.0 mg/kg/injection, schedule: Q04DX003 (ip), vehicle: sodium bicarbonate) was 25 % of control and 106 % of control; the T/C (dose: 18.0 mg/kg/injection, schedule: Q04DX003 (ip), vehicle: sodium bicarbonate) was 7 % of control and 84 % of control. Take `Cc1cc(Br)c2nsnc2c1[N+](=O)[O-]`: the T/C is, setting by setting: (dose: 300.0 mg/kg/injection, schedule: Q04DX003 (ip), vehicle: saline with Tween-80) 30 % of control and 82 % of control; (dose: 600.0 mg/kg/injection, schedule: Q04DX003 (ip), vehicle: saline with Tween-80) 13 % of control and 88 % of control.

On to `N#CC(C#N)=NNc1ccc2cn[nH]c2c1`, for which the T/C (dose: 25.0 mg/kg/injection, schedule: Q04DX003 (ip), vehicle: Klucel (hydroxypropylcellulose) (HPC)) is 36 % of control and 186 % of control; the T/C under setting [4] is -53 % of control and 47 % of control. For `CC1=CCCC2C1(C)CCC(C)C2(C)Cc1cc(O)ccc1O` (stereo not drawn), the T/C is, setting by setting: under setting [3], 29 % of control and 103 % of control; under setting [4], 15 % of control and 103 % of control; (dose: 400.0 mg/kg/injection, schedule: Q04DX003 (ip), vehicle: Klucel (hydroxypropylcellulose) (HPC)) 28 % of control and 152 % of control. In the case of `C=CCOc1cc2c(cc1C(C)c1ccc(OC)cc1)OCO2` (stereo not drawn), the T/C (dose: 300.0 mg/kg/injection, schedule: Q04DX003 (ip), vehicle: Klucel (hydroxypropylcellulose) (HPC)) is 23 % of control and 51 % of control. On to `O=P1(N(CCCl)CCCl)NCCCO1` (stereo not drawn), for which the T/C reads like this: (dose: 40.0 mg/kg/injection, schedule: Q04DX003 (ip), vehicle: saline) 26 % of control, 92 % of control, 105 % of control; (dose: 60.0 mg/kg/injection, schedule: Q04DX003 (ip), vehicle: saline) 52 % of control, 58 % of control, 85 % of control; (dose: 90.0 mg/kg/injection, schedule: Q04DX003 (ip), vehicle: saline) 42 % of control, 52 % of control, 108 % of control. `Cc1ccc(C(=O)NC2C(=O)NC(C(C)C)C(=O)N3CCCC3C(=O)N(C)CC(=O)N(C)C(C(C)C)C(=O)OC2C)c2c1Oc1c(c(C(=O)NC3C(=O)NC(C(C)C)C(=O)N4CCCC4C(=O)N(C)CC(=O)N(C)C(C(C)C)C(=O)OC3C)c3nc(-c4ccccc4)c(=O)oc3c1C)N2` (stereo not drawn): the T/C (dose: 1.0 mg/kg/injection, schedule: Q04DX003 (ip), vehicle: water) was -36 % of control and 37 % of control. With `COc1ccc(C(C)c2cc3c(cc2OC)OCO3)cc1` (stereo not drawn), under setting [2], the T/C was 19 % of control and 52 % of control. `Cc1ccc(C(=Nc2ccccc2)N=P(c2ccccc2)(c2ccccc2)c2ccccc2)cc1`: the T/C was 78 % of control and 104 % of control (dose: 25.0 mg/kg/injection, schedule: Q04DX003 (ip), vehicle: saline with Tween-80); 66 % of control and 117 % of control under setting [2]. On to `O=C1C=C(N2CC2)C(=O)C(N2CC2)=C1N1CC1`, for which the T/C is 36 % of control and 70 % of control (dose: 50.0 micrograms/kg/injection, schedule: Q04DX003 (ip), vehicle: saline); 1 % of control and 30 % of control (dose: 200.0 micrograms/kg/injection, schedule: Q04DX003 (ip), vehicle: saline). For `Cc1c2oc3c(C)ccc(C(=O)N[C@@H]4C(=O)N[C@H](C(C)C)C(=O)N5CCC[C@H]5C(=O)N(C)CC(=O)N(C)[C@@H](C(C)C)C(=O)O[C@H]4C)c3nc-2c(C(=O)N[C@@H]2C(=O)N[C@H](C(C)C)C(=O)N3CCC[C@H]3C(=O)N(C)CC(=O)N(C)[C@@H](C(C)C)C(=O)O[C@H]2C)c(N)c1=O` (I: [aThr][dV]P[Sar][NMeV] / II: [aThr][dV]P[Sar][NMeV]; ester I:1-I:C, II:1-II:C; linker I:N-II:N via Actinocin(9to1)), the T/C by setting is: (dose: 0.13 mg/kg/injection, schedule: Q04DX003 (ip), vehicle: saline) 9 % of control, 30 % of control, 38 % of control; (dose: 0.2 mg/kg/injection, schedule: Q04DX003 (ip), vehicle: saline) 7 % of control, 38 % of control, 47 % of control; (dose: 0.3 mg/kg/injection, schedule: Q04DX003 (ip), vehicle: saline) -28 % of control, 21 % of control, 31 % of control.

Source of the values: PubChem BioAssay AID278 (DTP/NCI, 2004).
